From the antibiotic and cytotoxicity screens of Wong et al. (2023)
The other results are listed elsewhere or left out.

Experiments:
HSkMC = human skeletal muscle cells; experiment: cytotoxicity call (relative viability < 0.9); details: 10 µM
HepG2 = experiment: cytotoxicity call (relative viability < 0.9); details: 10 µM
S. aureus RN4220 = experiment: growth inhibition call (relative growth <= 0.2); details: 50 µM

Row | Compound | cytotoxicity call (HSkMC) | cytotoxicity call (HepG2) | growth inhibition call (S. aureus RN4220)
1 | C[C@H]1CN([C@@H](C)CO)C(=O)Cc2cc(NC(=O)Cn3cnnn3)ccc2O[C@@H]1CN(C)C(=O)Nc1cccc2ccccc12 | inactive | inactive | inactive
2 | CC(C)N1C(=O)[C@@H]2[C@@H](C1=O)[C@@H]1C=C[C@@H]2O1 | inactive | inactive | inactive
3 | C[C@H]1CCCCO[C@@H](CN(C)C(=O)Nc2ccc(F)cc2)[C@@H](C)CN([C@@H](C)CO)C(=O)c2cc(NC(=O)Nc3ccc(C(F)(F)F)cc3)ccc2O1 | inactive | inactive | inactive
4 | C[C@@H]1CCCCO[C@H](CN(C)S(=O)(=O)c2ccc(Cl)cc2)[C@@H](C)CN([C@H](C)CO)C(=O)c2cc(NC(=O)Nc3cccc4ccccc34)ccc2O1 | inactive | inactive | inactive
5 | CC(=O)NCCCCCC(=O)O | inactive | inactive | inactive
6 | CN(C)CCCNC(=O)C[C@@H]1CC[C@@H](NS(=O)(=O)c2ccccc2)[C@H](CO)O1 | inactive | inactive | inactive
7 | C[C@H]1CN([C@@H](C)CO)C(=O)Cc2cc(NC(=O)Nc3ccccc3)ccc2O[C@H]1CN(C)Cc1ccc(C(F)(F)F)cc1 | active | active | inactive
8 | CN1CCN(C(=O)C[C@@H]2C[C@@H]3c4cc(NS(=O)(=O)c5ccc(F)cc5)ccc4O[C@@H]3[C@H](CO)O2)CC1 | inactive | inactive | inactive
9 | C[C@H](CO)N1C[C@H](C)[C@@H](CN(C)Cc2ccc(Cl)c(Cl)c2)OCCCC[C@H](C)Oc2ccc(NC(=O)c3ccccc3)cc2C1=O | inactive | inactive | inactive
